{"source": "paper PMC4336329", "about": "(PLoS ONE, 2015)", "note": "The whole screen tested about 310,000 compounds, of which about 2,200 (0.71%) showed an effect of 50% or more. Effects have a minus sign here. The list shows a part of the results."}
{"target": "human ether-à-go-go-related gene (hERG) potassium channel (human, UniProt Q12809)", "sequence (Q12809 whole entry, looked up)": "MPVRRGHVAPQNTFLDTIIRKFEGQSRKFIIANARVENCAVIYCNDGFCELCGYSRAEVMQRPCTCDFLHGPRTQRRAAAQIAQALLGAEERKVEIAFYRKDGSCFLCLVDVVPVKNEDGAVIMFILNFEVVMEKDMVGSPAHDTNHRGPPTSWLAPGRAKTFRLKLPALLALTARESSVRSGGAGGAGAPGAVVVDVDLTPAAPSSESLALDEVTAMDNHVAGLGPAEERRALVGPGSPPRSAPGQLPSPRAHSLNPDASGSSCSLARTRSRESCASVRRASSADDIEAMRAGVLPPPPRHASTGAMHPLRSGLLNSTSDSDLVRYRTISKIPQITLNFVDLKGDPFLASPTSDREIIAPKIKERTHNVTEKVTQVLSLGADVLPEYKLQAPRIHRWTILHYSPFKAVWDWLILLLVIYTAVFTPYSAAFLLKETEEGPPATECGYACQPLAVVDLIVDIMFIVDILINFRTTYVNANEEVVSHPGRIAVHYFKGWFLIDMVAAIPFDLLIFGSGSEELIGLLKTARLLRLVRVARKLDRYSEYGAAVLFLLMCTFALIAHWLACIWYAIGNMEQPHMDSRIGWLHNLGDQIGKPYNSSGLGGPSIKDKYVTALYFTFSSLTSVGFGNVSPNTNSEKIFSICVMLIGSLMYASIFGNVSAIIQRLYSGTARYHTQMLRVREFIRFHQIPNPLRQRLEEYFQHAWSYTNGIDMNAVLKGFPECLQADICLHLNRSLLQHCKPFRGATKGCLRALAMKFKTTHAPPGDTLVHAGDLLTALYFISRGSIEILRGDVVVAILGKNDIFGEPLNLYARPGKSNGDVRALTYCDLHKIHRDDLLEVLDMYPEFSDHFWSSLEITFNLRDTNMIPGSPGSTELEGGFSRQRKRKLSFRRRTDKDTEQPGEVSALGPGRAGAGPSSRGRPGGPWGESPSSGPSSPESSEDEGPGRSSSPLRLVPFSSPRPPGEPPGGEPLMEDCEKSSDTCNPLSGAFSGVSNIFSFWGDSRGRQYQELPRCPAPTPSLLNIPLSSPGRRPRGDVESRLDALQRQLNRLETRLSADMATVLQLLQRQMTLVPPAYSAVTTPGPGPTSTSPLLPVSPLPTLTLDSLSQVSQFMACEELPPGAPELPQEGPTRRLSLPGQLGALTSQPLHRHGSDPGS", "experiment": "primary screen, population patch clamp on CHO cells stably expressing hERG", "units": {"hERG current change (%, negative = inhibition) at 1uM": "%"}}
{"smiles": "O=C(NC1CCS(=O)(=O)C1)C1CCCC1", "note": "(stereo not drawn)", "hERG current change (%, negative = inhibition) at 1uM": 4.62}
{"smiles": "CC1CCCC(C)N1C(=O)COc1ccc(C(=O)N/N=C/c2ccc(C(=O)O)cc2)cc1", "note": "(stereo not drawn)", "hERG current change (%, negative = inhibition) at 1uM": 9.6}
{"smiles": "S=C(NCc1ccc(Cl)cc1)N1CCN(c2ccccn2)CC1", "hERG current change (%, negative = inhibition) at 1uM": 2.63}
{"smiles": "CC1(C)CC(=O)C(CS(=O)(=O)c2ccccc2)=C(O)C1", "hERG current change (%, negative = inhibition) at 1uM": 6.22}
{"smiles": "O=C(CNS(=O)(=O)c1c(F)cc(F)cc1Br)OCC(=O)N1CCCC1=O", "hERG current change (%, negative = inhibition) at 1uM": 13.1}
{"smiles": "CS(=O)(=O)N1CC2CCCN2c2ccc(C(F)(F)F)cc21", "note": "(stereo not drawn)", "hERG current change (%, negative = inhibition) at 1uM": 7.13}
{"smiles": "O=C(NCc1ccc(Cl)cc1)C(=O)c1c[nH]c2ccccc12", "hERG current change (%, negative = inhibition) at 1uM": 10.4}
{"smiles": "CCn1nc(C)c([N+](=O)[O-])c1C(=O)NNC(=O)c1ccc(Cl)cc1", "hERG current change (%, negative = inhibition) at 1uM": 2.72}
{"smiles": "O=C(C1CCC1)N1CCc2cc(S(=O)(=O)N3CCN(c4ccccn4)CC3)ccc21", "hERG current change (%, negative = inhibition) at 1uM": 2.29}
{"smiles": "Cc1ccccc1NS(=O)(=O)c1cccc(C(=O)Nc2cccc(C(=O)O)c2)c1", "hERG current change (%, negative = inhibition) at 1uM": 17.1}
{"smiles": "COc1cccc(OC)c1C(=O)Nc1nc2cc3c(cc2s1)OCO3", "hERG current change (%, negative = inhibition) at 1uM": 12}
{"smiles": "CC(C)c1ccccc1-n1cc[nH]c1=S", "hERG current change (%, negative = inhibition) at 1uM": 8.68}
{"smiles": "CN(C)c1ccc(NC(=O)Nc2cccc3ccccc23)cc1", "hERG current change (%, negative = inhibition) at 1uM": 15.6}
{"smiles": "COc1ccc(C(=O)OC(C)C(=O)Nc2cc(C(F)(F)F)ccc2Cl)c(OC)c1OC", "note": "(stereo not drawn)", "hERG current change (%, negative = inhibition) at 1uM": -3.09}
{"smiles": "Cc1cc(C)nc(N2CCC(C(=O)NNC(=O)Cc3ccccc3)CC2)n1", "hERG current change (%, negative = inhibition) at 1uM": 10.2}
{"smiles": "O=c1c(-c2ccccc2)c(O)c2ccccc2n1-c1ccccc1", "hERG current change (%, negative = inhibition) at 1uM": 8.71}
{"smiles": "O=C(Cn1nnc(-c2ccc(Cl)cc2)n1)NCC1CCCCC1", "hERG current change (%, negative = inhibition) at 1uM": 2.27}
{"smiles": "CCn1c(COc2ccccc2C)nnc1SCC(=O)CC(=O)Nc1ccccc1", "hERG current change (%, negative = inhibition) at 1uM": 11.7}
{"smiles": "Cn1c(O)c(C=NCCN2CCNCC2)c(=O)n(C)c1=O", "hERG current change (%, negative = inhibition) at 1uM": 9.99}
{"smiles": "O=C(O)c1ccc2c(c1)C(=O)N(c1ccc(/C=C/C(=O)c3ccccc3)cc1)C2=O", "hERG current change (%, negative = inhibition) at 1uM": 3.28}
{"smiles": "Cc1ccc(S(=O)(=O)N(C)CCCC(=O)n2nc(C)cc2C)cc1", "hERG current change (%, negative = inhibition) at 1uM": 7.9}
{"smiles": "CC(C)Oc1ccc(CN2CCCC(CO)(Cc3ccc(F)cc3)C2)cc1", "note": "(stereo not drawn)", "hERG current change (%, negative = inhibition) at 1uM": 2.29}
{"smiles": "CCN(CC(=O)Nc1ccc(N2CCOCC2)cc1)C(=O)Cc1ccccc1", "hERG current change (%, negative = inhibition) at 1uM": 14.6}
{"smiles": "Cc1ccc2c(CC(=O)OCc3cc(=O)n4c(n3)sc3ccccc34)coc2c1", "hERG current change (%, negative = inhibition) at 1uM": 2.62}
{"smiles": "Cc1ccc2nc(N(CCCN(C)C)C(=O)c3ccc(S(=O)(=O)N4CCCCCC4)cc3)sc2c1.Cl", "hERG current change (%, negative = inhibition) at 1uM": 0.393}
{"smiles": "Cn1c(SCC(=O)NC2CCCCC2)nnc1-c1ccncc1", "hERG current change (%, negative = inhibition) at 1uM": 3.91}
{"smiles": "O=C(Nc1ccc(F)cc1)Nc1ccc(N2CCOCC2)c2nonc12", "hERG current change (%, negative = inhibition) at 1uM": 5.31}
{"smiles": "COc1ccc(N(CC(=O)NCc2ccccc2)S(=O)(=O)c2c(C)noc2C)cc1", "hERG current change (%, negative = inhibition) at 1uM": 14.5}
{"smiles": "O=C(Nc1ccncc1)c1cccc(F)c1", "hERG current change (%, negative = inhibition) at 1uM": 2.77}
{"smiles": "CCOC(=O)c1cccnc1NC(=O)c1ccccc1", "hERG current change (%, negative = inhibition) at 1uM": 1.1}
{"smiles": "COc1ccc(C(=O)COC(=O)CNC(=O)C2CCCCC2)c(OC)c1", "hERG current change (%, negative = inhibition) at 1uM": -2.58}
{"smiles": "CN(C)CCCn1c(SCC(=O)N2c3ccccc3Sc3ccccc32)nc2ccccc2c1=O", "hERG current change (%, negative = inhibition) at 1uM": 0.0392}
{"smiles": "O=C(Oc1ccc(N(Cc2cccs2)C2=NS(=O)(=O)c3ccccc32)cc1)c1ccccc1F", "hERG current change (%, negative = inhibition) at 1uM": -1.46}
{"smiles": "COc1ccc(CCNC(=O)CCSCc2ccccc2F)cc1OC", "hERG current change (%, negative = inhibition) at 1uM": 17.9}
{"smiles": "O=C(NC(=S)Nc1ccc2c(c1)OCCO2)c1ccccc1", "hERG current change (%, negative = inhibition) at 1uM": 2.52}
{"smiles": "CN(C)CCCNC(=O)c1cc(C(=O)Cc2ccccc2)c[nH]1", "hERG current change (%, negative = inhibition) at 1uM": 9.7}
{"smiles": "Cc1cc(C)c(C#N)c(N2CCN(Cc3ccc4c(c3)OCO4)CC2)n1", "hERG current change (%, negative = inhibition) at 1uM": 1.32}
{"smiles": "O=C(CN1CCCC1)N1CCN(c2ccccc2)CC1", "hERG current change (%, negative = inhibition) at 1uM": 3.19}
{"smiles": "CN(C)CCCNC(=O)c1cc(Br)ccc1Cl", "hERG current change (%, negative = inhibition) at 1uM": 3.74}
{"smiles": "O=C(O)CCN1C(=O)CC(N2C(=O)/C(=C/c3ccc(Cl)cc3)SC2=S)C1=O", "note": "(stereo not drawn)", "hERG current change (%, negative = inhibition) at 1uM": 14.8}
{"smiles": "COc1ccc(OCc2cc(C(=O)N3CCC(OC)CC3)no2)c2ccccc12", "hERG current change (%, negative = inhibition) at 1uM": 10.7}
{"smiles": "CCCCOC(=O)C1=C(C)Nc2ncnn2C1c1cc(OC)c(OC)cc1OC", "note": "(stereo not drawn)", "hERG current change (%, negative = inhibition) at 1uM": 6.11}
{"smiles": "Cc1noc(C)c1S(=O)(=O)N1CCCC(C(=O)NCc2ccccc2Cl)C1", "note": "(stereo not drawn)", "hERG current change (%, negative = inhibition) at 1uM": 14.1}
{"smiles": "Cc1cc(C(=O)CN2C(=O)c3ccccc3S2(=O)=O)c(C)n1CC1CCCO1", "note": "(stereo not drawn)", "hERG current change (%, negative = inhibition) at 1uM": 8.66}
{"smiles": "CC(CN1CCOCC1)OC(=O)c1cccs1.Cl", "note": "(stereo not drawn)", "hERG current change (%, negative = inhibition) at 1uM": 10.6}
